{
  "source": "the supplement of paper PMC11417369",
  "note": "± gives the standard deviation of the averaged measurements. Some of the results follow.",
  "data": [
    {"tested_on": "PfAP2-G AP2 domain (GST-tagged)", "test": "gcPBM binding intensity (ln(normalized median fluorescence intensity)); higher = stronger DNA binding", "how_it_was_run": "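An Agilent 4 × 180k array carrying primer-extended double-stranded 36-bp intergenic genomic probes and negative controls received GST-tagged P. falciparum DNA-binding domains expressed in E. coli, about 25 μg on average, for 1 h. The binding buffer contained 1× PBS, 1% milk, 0.2 mg/ml BSA, 0.5% salmon testes DNA and 0.03% Triton X-100. Binding intensity is the top Masliner-normalised natural-log median intensity across replicate spots of either probe orientation, read after Alexa488 anti-GST antibody staining and a 488 nm scan.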", "values": [
      {"sequence": "CAAAATTTATATAATAGTACACATGATCTTTTTTCT [XGTACX_site8956]", "gcPBM binding intensity (ln)": "11.4 ± 0.73"},
      {"sequence": "GATACAAAATGGGGAACACACACATATATATATATA [CACACA_site9278]", "gcPBM binding intensity (ln)": "10.5 ± 0.44"},
      {"sequence": "AAATTAATAAATATTTTTATAAATTATAATATTAAT [GTGCAC_negctrl_site533]", "gcPBM binding intensity (ln)": "9.37 ± 0.16"},
      {"sequence": "TATATATATATATATATATATATTAATATATATTAC [XGTACX_negctrl_site103]", "gcPBM binding intensity (ln)": "9.98 ± 0.65"},
      {"sequence": "TATTTATAAATATAAACACACAACATTATATGCATA [CACACA_site5748]", "gcPBM binding intensity (ln)": "10.03 ± 0.064"},
      {"sequence": "TAAAGGCAAACAAACACACACACATATATACCTATA [CACACA_site7078]", "gcPBM binding intensity (ln)": "9.985 ± 0.064"},
      {"sequence": "ATAACAAAATAAAACACACACACAAATGTACCTATA [CACACA_site7190]", "gcPBM binding intensity (ln)": "11.1 ± 0.74"},
      {"sequence": "AAAAGTGTATGTAGGTGTACTTTTTATTTCTTCTTT [XGTACX_site8819]", "gcPBM binding intensity (ln)": "11.6 ± 0.98"},
      {"sequence": "AAATATTTATACCACACACACATACCTCTATTTGTA [CACACA_site6957]", "gcPBM binding intensity (ln)": "10.2 ± 0.11"},
      {"sequence": "TACATATTTGTATATGCACACATAAATTTTTCCATT [CACACA_site9148]", "gcPBM binding intensity (ln)": "9.98 ± 0.042"},
      {"sequence": "TATATTTATATATTAGTGCACTTTTTGTTAATTTTT", "gcPBM binding intensity (ln)": "10.3 ± 0.25"},
      {"sequence": "TTTTTTTTTTTTTAATGTACCCATGGGCACATAGGT [XGTACX_site486]", "gcPBM binding intensity (ln)": "11.4 ± 1"},
      {"sequence": "TAAATATAGGGTAATAGTACATAATTATATTCTTTT [XGTACX_site3883]", "gcPBM binding intensity (ln)": "10.7 ± 0.36"},
      {"sequence": "AATGGATTAGCTAGCACACACAAAAAAAAAAAAAAA [CACACA_site3031]", "gcPBM binding intensity (ln)": "10 ± 0.45"},
      {"sequence": "TTTACATAAACTGGTAGTACATAATATGGCTTAAAA [XGTACX_site5002]", "gcPBM binding intensity (ln)": "11.5 ± 0.86"},
      {"sequence": "TTAGCAACTATTACTACACACATTTGTATTTAATTT [CACACA_site4961]", "gcPBM binding intensity (ln)": "9.945 ± 0.021"},
      {"sequence": "TGGATTTTTTGATTTTTGTTTTTCTTCTTTCCCCCC [CACACA_negctrl_site1471]", "gcPBM binding intensity (ln)": "10.6 ± 0.81"},
      {"sequence": "TGATTATAGACACGCGCACACACAACAAAAAAAAAA [CACACA_site9179]", "gcPBM binding intensity (ln)": "10.6 ± 0.48"},
      {"sequence": "TAAGTTTGTGCAAGTGGTACATATATATAAATTTAT [XGTACX_site5944]", "gcPBM binding intensity (ln)": "11.3 ± 0.79"},
      {"sequence": "ACAGTATAAAAATAAGCACACACACTAATATATATT [CACACA_site8212]", "gcPBM binding intensity (ln)": "10.1 ± 0.11"},
      {"sequence": "TAAAATATATTTTTCTGTACACAAAAATATATTAAA [XGTACX_site2813]", "gcPBM binding intensity (ln)": "11.5 ± 0.96"},
      {"sequence": "TATATATTAATATATGCATGTTAATATATTATGAAA [TGCATGCA_site61]", "gcPBM binding intensity (ln)": "9.62 ± 0.11"},
      {"sequence": "AATGTAAAACGAAATGCACACTATGGAAAATATAAA [CACACA_site4559]", "gcPBM binding intensity (ln)": "10.21 ± 0.085"},
      {"sequence": "TTATATATTTATAAATGTACGTATAAGAATTTAATT [XGTACX_site8541]", "gcPBM binding intensity (ln)": "11.5 ± 0.81"},
      {"sequence": "CTATTAATGTACTCTACACACATATAAGAGGACATT [CACACA_site471]", "gcPBM binding intensity (ln)": "11.6 ± 0.86"},
      {"sequence": "TAATAATAATTAAAATGAGATAAATAAATATATATA [TGCATGCA_negctrl_site322]", "gcPBM binding intensity (ln)": 9.55},
      {"sequence": "TCTTTATATCATCTTTCTAAATATATATATATATAA [CACACA_negctrl_site77]", "gcPBM binding intensity (ln)": "9.885 ± 0.021"},
      {"sequence": "AAAAATAAAAATGAGTGTACTTTAAGCCCTACACTT [XGTACX_site828]", "gcPBM binding intensity (ln)": "11.3 ± 0.74"},
      {"sequence": "TATAATATTATAGTTTGTACGAAAATAATATATTTA [XGTACX_site8673]", "gcPBM binding intensity (ln)": "11 ± 0.62"},
      {"sequence": "ACGATGTTCATCACTACACACACAAAGAAATATATA [CACACA_site8859]", "gcPBM binding intensity (ln)": "10.1 ± 0.16"},
      {"sequence": "AACCAAAATTTTTGTCGTACAAAAGAGCAAATGTAG [XGTACX_site6472]", "gcPBM binding intensity (ln)": "11.6 ± 0.81"},
      {"sequence": "AATATTTTTTGTTTTACACACATATATAAATATATA [CACACA_site3602]", "gcPBM binding intensity (ln)": "9.93 ± 0.057"},
      {"sequence": "TTATTTATATATTGCCCACACACATGTGATTATTTA [CACACA_site1715]", "gcPBM binding intensity (ln)": "10.4 ± 0.18"},
      {"sequence": "ATAAACATGTATATATTAAAAAAAAAAAAAAAAAAT [CACACA_negctrl_site92]", "gcPBM binding intensity (ln)": "9.69 ± 0.22"},
      {"sequence": "GAATTATATACTTATTGTACAAAAAAAAAAAAAAAA [XGTACX_site3193]", "gcPBM binding intensity (ln)": "10.7 ± 0.78"},
      {"sequence": "TATTCCCCCCAACACACACACACACCGACATACCAC [CACACA_site8723]", "gcPBM binding intensity (ln)": "11.8 ± 1.1"},
      {"sequence": "TGAACAGGTCATAATTTACACACTATATATTTTATT [CACACA_site8123]", "gcPBM binding intensity (ln)": "10.12 ± 0.092"},
      {"sequence": "TACAGGAATATTTTTACACACTAAAAGTTATAAACT [CACACA_site6876]", "gcPBM binding intensity (ln)": "9.7 ± 0.11"},
      {"sequence": "TTTTTCTTTTTTTGTTGTACATTTTGTAATATTTAC [XGTACX_site4102]", "gcPBM binding intensity (ln)": "11.1 ± 0.7"},
      {"sequence": "TTTTTTAAATATATATGTACATATATCTATATATAT [XGTACX_site3461]", "gcPBM binding intensity (ln)": "11.2 ± 0.71"},
      {"sequence": "TTTATAATTTATAGGCGGACAGGAAAATTTTATAAA [XGTACX_site6955]", "gcPBM binding intensity (ln)": "11.4 ± 0.83"},
      {"sequence": "GCAAGGTCCACACTGGTGCATTAAAAATAAAATATA [GTGCAC_site9956]", "gcPBM binding intensity (ln)": "10.5 ± 0.62"},
      {"sequence": "TTTTTAATTTTTTTCACACATATATAAATACAAATA [CACACA_site5530]", "gcPBM binding intensity (ln)": "9.97 ± 0.36"},
      {"sequence": "AAATTACAAATAAAATGTACTCATGTTTTTATTATA [XGTACX_site7223]", "gcPBM binding intensity (ln)": "11.5 ± 0.83"},
      {"sequence": "TATAATATATATGTATGTACGTATGTATGATTTTGT [XGTACX_site1164]", "gcPBM binding intensity (ln)": "11.5 ± 1"},
      {"sequence": "AAGAAAAATTCTTCACGTACAAATAATTATATATAT [XGTACX_site7217]", "gcPBM binding intensity (ln)": "11.2 ± 0.83"},
      {"sequence": "TATTACAAAAATGTGTTATTATATAAACGTATAGAG [XGTACX_negctrl_site529]", "gcPBM binding intensity (ln)": "10.09 ± 0.057"},
      {"sequence": "AATATAATATAATGCACACATAAAAAAAAAAAAAAA [CACACA_site304]", "gcPBM binding intensity (ln)": "9.87 ± 0.45"},
      {"sequence": "TTTCTTATATTATATAAATATATAGATGTTAATGGT [CACACA_negctrl_site706]", "gcPBM binding intensity (ln)": "9.905 ± 0.064"},
      {"sequence": "AGTAAATATATTATATGTACGTATCATAAAATATAT [XGTACX_site1567]", "gcPBM binding intensity (ln)": "11.6 ± 0.86"},
      {"sequence": "TTAATATTAAAATATAAACACACAAAATTCAATTAT [CACACA_site9262]", "gcPBM binding intensity (ln)": "9.92 ± 0.014"},
      {"sequence": "ATTATATAATAATAAAGTACTAATATTTTTAAAAGA [XGTACX_site235]", "gcPBM binding intensity (ln)": "11 ± 0.56"},
      {"sequence": "ATATATATATATATAGTGCAAATAAAAAATAGACAA [GTGCAC_site9796]", "gcPBM binding intensity (ln)": "10.3 ± 0.2"},
      {"sequence": "TAATATATTAAAAGAAGTACATTTCTGATTTAATAG [XGTACX_site6403]", "gcPBM binding intensity (ln)": "11.3 ± 1"},
      {"sequence": "GAACCGTTTTTATGTAGTACATATGTATATATATAT [XGTACX_site1577]", "gcPBM binding intensity (ln)": "11.6 ± 1.1"},
      {"sequence": "ATTTTTTTTTTTTTTTTTAATTTATGTTGTTATTTT [CACACA_negctrl_site944]", "gcPBM binding intensity (ln)": "9.7 ± 0.16"}
    ]}
  ]
}
